Experimental data published in patent US8383125B2, “Antimicrobial protein” (Agriculture Victoria Services Pty, Limited, priority 2006, dated 2013).

Tested on: gram-negative bacteria, gram positive bacteria and a fungus
Conditions: summary of Table 1; for MIC against gram-negative bacteria as a class: gram-negative bacteria tested

| Substance | MIC against gram-negative bacteria as a class | MIC against Bacillus subtilis, Streptococcus pyogenes, and Streptococcus equi equi | MIC against E. coli, Pseudomonas spp. including P. aeruginosa and Proteus vulgaris | MIC against all microorganisms tested |
| --- | --- | --- | --- | --- |
| KRGLWESLKRKATKLGDDIRNTLRNFKIKFPVPRQ-NH2 [SEQ ID NO: 19] | > 5.0 mg/L |  |  |  |
| KRGFGKKLRKRLKKFRNSIKKRLKNFNVVIPIPLP-NH2 [SEQ ID NO: 2] | less than 5 μg/ml | less than 2.5 μg/ml | less than 2.5 μg/ml | less than 10 μg/ml |

Where no end group is shown, it is not given here.
